By GI50 is commonly meant the concentration at which growth is held to half of that of the control.

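Growth conditions: 96-well plates. Treatment: test compound, 48 hours, 5 concentrations. Analysis: linear interpolation between bracketing concentrations; unreached endpoints set to highest concentration. Abbreviation: GI50, concentration required for 50% inhibition of growth.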 Activity calls are given as the source filed them. Cut-off read from the data, not from the text of the source: active = GI50 up to about 1.1 µM and inactive = higher.

Consider 31 compounds from ChEMBL document CHEMBL1201862, “PubChem BioAssay data set” (2004).

This assay has as its system NCI-H322M. The experiment in a line: DTP human tumour cell line panel, 48 h.
On to `CS(=O)(=O)ON1C(=O)c2ccc(N)cc2C1=O`, for which the GI50 is inactive: > 100 µM. Regarding `CCOC(=O)NC(Nc1ccc(C(=O)OCC)cc1)(C(F)(F)F)C(F)(F)F`, the GI50 was inactive: > 100 µM. In the case of `CCCOP1(=O)C=C(C)C(Cl)=C(C)C1` (stereo unspecified) it was inactive: 22.2 µM; in that of `CC(=O)/C(=C\NC(N)=S)C(=O)Nc1ccccc1C`, inactive: > 100 µM; in that of `[O-][n+]1c(-c2ccccc2)oc2ccccc21`, inactive: 16.2 µM. For `CC1CCC2CC1NC(=O)CCOCCC(=O)NC2(C)C` (stereo unspecified) the value was inactive: > 100 µM; for `COc1ccc(/C=c2\sc3n(c2=O)C(N)=C(C#N)C(c2ccc(OC)cc2)C=3c2nc3ccccc3[nH]2)cc1` (stereo unspecified), inactive: 31.9 µM. For `CC(C)=c1sc(=C(C)C)c2c1=NC(C)(C)N=2`, the GI50 is inactive: > 100 µM. In the case of `COc1ccc(/C(Cl)=C(\C=O)c2ccc(Br)cc2)cc1OC` it was inactive: > 100 µM. In the case of `c1ccc(C2SCc3nc4cc5ccccc5cc4n32)cc1` (stereo unspecified), the GI50 was inactive: > 100 µM. For `[O-][n+]1nc(N2CCOCC2)nc2ccccc21` the value was inactive: > 100 µM; for `C/C(CC(=O)Nc1ccc(C)cc1)=N\NC(N)=S`, inactive: > 100 µM. As for `CN(C)c1ccc(/C=C2\CCc3ccccc3C2=O)cc1Br`, the GI50 was inactive: > 100 µM. As for `Nc1nc(CCl)nc(N2CCOCC2)n1`, the GI50 was inactive: 85.1 µM.

As to `CCCCCNc1nonc1N`, the GI50 was inactive: > 100 µM. For `O=C(/N=C(\Nc1ccccc1)SCCS/C(=N/C(=O)c1cccs1)Nc1ccccc1)c1cccs1` the value was inactive: 89.9 µM; for `COc1cc(C2SCC(=O)N2c2ccc(Cl)c(Cl)c2)cc(OC)c1OC` (stereo unspecified), inactive: 37.8 µM; for `Cc1cn(C2OC(CO[Si](C)(C)C(C)(C)C)/C(=C\C#N)C2O[Si](C)(C)C(C)(C)C)c(=O)[nH]c1=O` (stereo unspecified), inactive: > 100 µM. As for `Cc1ccccc1-c1c(N)nc(N)nc1C(=O)Nc1nccs1`, the GI50 was inactive: > 100 µM. In the case of `COC1CC2CCC(C)[C@](O)(O2)C(=O)C(=O)N2CCCCC2C(=O)OC(C(C)CC2CCC(O)C(OC)C2)CC(=O)C(C)C=C(C)C(OC(=O)CN(C)C)C(OC)C(=O)C(C)CC(C)/C=C/C=C/C=C\1C` (stereo partly specified) it was inactive: 11 µM. In the case of `CC1(CCCCO)C=CC(S(=O)(=O)c2ccccc2)CC1` (stereo unspecified) it was inactive: 6.44 µM; in that of `COc1ccc(/C=C2\N=C3NC(=O)C(N4CCCCC4)=C(N)N3C2=O)cc1`, inactive: > 100 µM; in that of `Cc1cc(C)nc(NS(=O)(=O)c2ccc(NNC(=O)c3cccc4c(NNc5ccc(S(=O)(=O)Nc6nc(C)cc(C)n6)cc5)c5ccccc5nc34)cc2)n1`, inactive: 23 µM. For `COc1ccc(C2C(Cl)C(=O)N2NC(=O)c2ccc(NC(C)=O)cc2)cc1` (stereo unspecified), the GI50 is inactive: > 100 µM. In the case of `CC(C)(CN1CCCCC1)C(/C=C/c1ccccc1)=N\NC(=O)N/N=C(/C=C/c1ccccc1)C(C)(C)CN1CCCCC1` it was inactive: 2.65 µM; in that of `Cn1ncc2c(=O)[nH]c(-c3ccccc3)nc21`, inactive: > 100 µM; in that of `COc1ccccc1/C=C1\C(=O)N(C(=O)c2ccc(NC(C)=O)cc2)N=C1C`, inactive: > 100 µM. For `COC(=O)n1c(C)c(C=O)c2ccc(OC)cc21` the value was inactive: 49.7 µM; for `SCCCSCCSCCCSCCS`, inactive: > 100 µM. With `COC(=O)C1=C2Nc3ccccc3C23CCN2C(O)C4(CC5CC67CCOC6CCN6CCC8(c9cccc(OC)c9N(C4)C58O)C67)C4OCCC4(C1)C23` (stereo unspecified), the GI50 is inactive: > 100 µM. For `COC(=O)C1=Cc2cc3c(cc2[C@H](c2ccc4c(c2)OCO4)C1C(=O)OC)OCO3` (stereo partly specified) the value was inactive: > 100 µM.
